In patent US20140308285A1 (Amgen, published 2014):

What was measured:
[1] = target: T1, human CD3 (CD3 epsilon chain) on human T cells (human, UniProt P07766); test: FACS on isolated human T cells, FITC anti-human light chain secondary antibody
T1 construct: The assay used isolated human T cells, which carry CD3 as part of the TCR-CD3 complex; also called CD3ε

[2] = target: T2, human mesothelin (MSLN) on Ovcar-8 cells (human, UniProt Q13421 296-598); test: cell-based or functional assay
[3] = target: T2, human mesothelin (MSLN) on Ovcar-8 cells; test: cell-based or functional assay; remark: listed apart in the source
T2 sequence (Q13421 other isoform, or with tags, fused parts or gaps limits assumed): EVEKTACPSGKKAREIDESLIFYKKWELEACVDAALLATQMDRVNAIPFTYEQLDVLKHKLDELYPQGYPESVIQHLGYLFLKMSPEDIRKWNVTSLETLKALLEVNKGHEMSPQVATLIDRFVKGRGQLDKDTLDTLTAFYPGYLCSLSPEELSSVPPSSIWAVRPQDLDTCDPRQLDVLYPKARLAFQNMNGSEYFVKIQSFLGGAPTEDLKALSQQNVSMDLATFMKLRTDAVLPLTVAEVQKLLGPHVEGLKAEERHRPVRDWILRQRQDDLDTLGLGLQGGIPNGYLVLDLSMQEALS

T1 sequence (P07766 22-207 limits assumed): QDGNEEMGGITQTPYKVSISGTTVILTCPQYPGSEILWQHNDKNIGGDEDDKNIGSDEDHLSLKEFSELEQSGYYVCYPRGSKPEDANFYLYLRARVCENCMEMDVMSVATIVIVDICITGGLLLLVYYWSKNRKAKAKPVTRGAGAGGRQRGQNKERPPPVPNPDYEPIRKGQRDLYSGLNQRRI

FACS binding (geometric mean) [1]: 220 | Human TDCC EC50 (pM), Ovcar-8 cells with human T cells [2]: 0.12 pM | Human TDCC EC50 (pM), Ovcar-8 cells with human T cells [3]: 0.12 pM
B1: […].5 (bispecific antibody)
chain 1: [omitted - about 120 residues]ASTKGPQVQLQESGPGLVKPSETLSLTCTVSGGSIISHYWSWIRQPPGKGLEWIGYIYYSGSTNYNPSLKSRVTISVDTSKNQFSLKLTSVTAADTAVYYCARDGWSAFDYWGQGTLVTVSSASTKGPSVFPLAPCSRSTSESTAALGCLVKDYFPEPVTVSWNSGALTSGVHTFPAVLQSSGLYSLSSVVTVPSSNFGTQTYTCNVDHKPSNTKVDKTVGGGGSAAAVPRDLEVVAATPTSLLISWDAPHHGVAYYRITYGETGGNSPVQEFTVPGSKSTATISGLKPGVDYTINVYAVLAYPRGYPLSKPISINYRTDYKDDDDKGSSHHHHHH
chain 2: not shown
notes: second chain: two variable regions, CL; also called anti-MSLN/anti-CD3 heterodimeric bispecific antibody; anti-MSLN/CD3ε heterodimeric bispecific antibody

Like-named read-outs stand apart in the source and are kept apart here.
